# Some of the results follow. Shown are side measurements of this screen, not its main read-out; they come without a call.
# Columns and labels:
# Experiment in all cases: Primary Screen for Target Class Profiling of Small Molecule Inhibitors of Methyltransferases
# [1] = target: Glycine N-methyltransferase (Homo sapiens) (UniProt Q14749); conditions: purified enzyme, MTase-Glo SAH luminescence; measured here: GNMT inhibition; at 40 µM; stronger effect = lower value
# Outline: (§1)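 Each enzyme was assayed with SAM and its substrate. SAH formation detected by MTase-Glo luminescence; single-point 40 uM screen[…].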
# [2] = target: Guanidinoacetate N-methyltransferase (Homo sapiens) (UniProt Q14353); conditions: purified enzyme, MTase-Glo SAH luminescence; measured here: GAMT inhibition; at 40 µM; stronger effect = lower value
# Outline: as §1
# [3] = target: Histamine N-methyltransferase (Homo sapiens) (UniProt P50135); conditions: purified enzyme, MTase-Glo SAH luminescence; measured here: HNMT inhibition; at 40 µM; stronger effect = lower value
# Outline: as §1
# [4] = target: Nicotinamide N-methyltransferase (Homo sapiens) (UniProt P40261); conditions: purified enzyme, MTase-Glo SAH luminescence; measured here: NNMT inhibition; at 40 µM; stronger effect = lower value
# Outline: as §1
# [5] = target: Phenylethanolamine N-methyltransferase (Homo sapiens) (UniProt P11086); conditions: purified enzyme, MTase-Glo SAH luminescence; measured here: PNMT inhibition; at 40 µM; stronger effect = lower value
# Outline: as §1
# % is scaled to controls: 0 for no effect and ±100 for the full control effect.
Structure (SMILES),"activity change, negative = inhibition [1] [%]","activity change, negative = inhibition [2] [%]","activity change, negative = inhibition [3] [%]","activity change, negative = inhibition [4] [%]","activity change, negative = inhibition [5] [%]"
COc1cccc(N2CCN(S(=O)(=O)c3cc4[nH]c(=O)[nH]c4cc3C)CC2)c1,-14.2,-3.73,-12.4,-18.3,-22.5
CC1(C(=O)NC2CCCCCC2)Cn2nc(-c3cccs3)cc2C(=O)N1c1ccc(F)cc1 (stereo not drawn),1.22,4.67,1.67,3.57,-0.396
CC(C)(C)CC(=O)NC[C@H]1OC[C@@H](NC2CCCC2)[C@@H]1O,-4.26,-14.1,-1.41,-7.77,-6.96
O=C1c2ccccc2CN1C1CCN(Cc2cccc3ccccc23)CC1,-8.46,-3.98,-4.86,-8.13,-3.47
CCS(=O)(=O)N1C[C@@H]2CN(Cc3ncc[nH]3)C[C@]2(C(=O)O)C1,-5.83,-2.45,-1.82,-7.47,-0.314
COc1cc(NC(=O)c2cc(C3CC3)on2)c(OC)cc1Cl,0.674,1.22,6.1,-10.1,-6.86
CCCn1c(=O)c2ccc(Cl)cc2n2c(=O)n(CC(=O)c3cccc(Cl)c3)nc12,0.688,2.58,11.8,-6.08,3.44
O=C(C1CCCC1)N1CC2(CCN(Cc3cccnc3)CC2)Cc2ccccc21,-6.41,-1.85,-13.3,-20.6,-2.37
N[C@H]1Cc2ccccc2N(O)C1=O,-2.98,8.32,-3.23,-15.4,-24
COc1ccccc1C(=O)N1CCC2(CC1)C(=NC1CCCCC1)NC(=O)N2c1cccnc1,-0.743,-1.38,1.09,-9.02,-17.1
CC1(NC(=O)C2CC2)CN(c2ccc(OC(F)(F)F)cc2)C1,0.902,2.62,2.24,-2.4,11.1
Cc1ccc2c(n1)Oc1ccc(C(C)C(=O)OCC(=O)N(C)C)cc1C2 (stereo not drawn),-17.3,-12.2,1.68,-22.7,-8.45
O=S(=O)(/N=C/c1c(O)ccc2ccccc12)c1cccs1,,2.07,,-6.74,-25.5
COc1cccc(C(=O)N2CCCN(CCn3nc4n(c3=O)CCCC4)CC2)c1,-3.38,-3.29,-1.3,-6.01,-14
COc1cccc(CN2C(=O)c3cc4oc(C)cc4n3CC2(C)C(=O)NC2CCCCC2)c1 (stereo not drawn),0.233,2.28,-1.03,-4.32,-1.48
CCCn1c(=O)c2ccc(Cl)cc2n2c(=O)n(CC(=O)Nc3ccc(C)c(C)c3)nc12,6.35,0,9.17,-0.526,2.83

Structure (SMILES),"activity change, negative = inhibition [1] [%]","activity change, negative = inhibition [2] [%]","activity change, negative = inhibition [3] [%]","activity change, negative = inhibition [4] [%]","activity change, negative = inhibition [5] [%]"
CC(C)n1c(=O)c2ccc(C(=O)NC3CCCCC3)cc2n2c(=O)n(Cc3ccc(F)cc3)nc12,6.46,0,8.84,6.26,4.89
CC1C(=O)Nc2ccc(S(=O)(=O)N3CCN(c4cccc(C(F)(F)F)c4)CC3)cc2NC1=O (stereo not drawn),2.47,0,2.44,-9.68,-0.652
CC(C)OCCCN1C(=O)c2cc3occc3n2CC1(C)C(=O)NC1CCCCCC1 (stereo not drawn),0.714,0,3.54,5.01,-2.85
CC(C)CNC(=O)c1ccc2c(=O)n(C(C)C)c3nn(Cc4ccccc4)c(=O)n3c2c1,0.424,0,7.04,0.725,2.23
O=c1[nH]c2ccc(S(=O)(=O)NCc3ccc(F)cc3)cc2[nH]1,-1.65,1.62,-3.6,-7.96,-10.1
C=C1CCC2C(C)(C(=O)O)CCCC2(C)C1CC/C(C)=C\CO (stereo not drawn),4.21,-4.54,8.89,-19.1,1.29
O=C(Nc1cccnc1)c1cnc2c(c1)N(Cc1ccccc1)CCC2,-27.6,-14.4,-31.6,-23.4,-15.2
CNc1nc(NCc2ccc(NS(C)(=O)=O)cc2Cl)cc(-c2ccccn2)n1,-5.57,-4.52,-37.6,-22.1,-0.099
CCc1ccc(S(=O)(=O)c2nnn3c2nc(NC2CCCC2)c2ccccc23)cc1,2.2,2.63,3.06,-5.23,0.707
CCc1cc2c(cc3n2CC(C)(C(=O)NC2CCC(C)CC2)N(Cc2cccc(OC)c2)C3=O)s1 (stereo not drawn),4.54,-4.91,7.53,-1.34,0.383
COc1ccc2c(c1)CN(C1CCN(C)CC1)CC[C@H]1COC(=O)N21,-1.16,-2.36,1.64,-3.38,-0.569
CCc1cc2c(cc3n2CC(C)(C(=O)NC2CCCCCC2)N(Cc2ccc(F)cc2)C3=O)s1 (stereo not drawn),0.898,0.279,1.75,0.416,-2.12
Fc1ccc(OCc2nc(C3CCNCC3)no2)cc1,-8.34,-11.1,-7.58,-14.2,-21.8
O=C(Nc1nc2cc(C(F)(F)F)cc(NC3CC3)n2n1)c1cccnc1,6.93,9.61,7.11,-10.1,2.96
CCCCCCCC/C=C\CCCCCCCC(=O)NCCc1ccc(O)c(O)c1,-12.8,14.5,7.25,-18.1,-3.52
